About 4,300 (8.3%) of roughly 52,000 compounds were called active. No stated cut-off is given here; in the data, active means survival mostly below about 52% (no sharp cut-off); inactive means mostly above about 56%. The list shows a part of the results.
These molecules were tested on DeltatarO mutant (assay: growth inhibition of S. aureus wild type versus tarO mutant, primary screen, teichoic acid synthesis inhibitors, RN4220, OD600 (AID 463173)). Conditions: OD600, 18 h, stronger effect = lower value, screened at 18.75 µg/mL (by protocol).

Row | Structure (SMILES) | survival
1 | O=C(CN1CCOCC1)NNc1nc(-c2ccccc2)c2cc(Cl)ccc2n1 | inactive: 81%
2 | CCN(C(=O)CSc1nc2ccccc2n1Cc1ccccc1C#N)c1ccccc1 | inactive: 82%
3 | CCOC(=O)c1ccc(NC(=O)CSc2nnc(-c3ccncc3)n2-c2ccccc2)cc1 | inactive: 83%
4 | Cc1ccc2c(C)c(C(=O)NCC(c3ccc(Cl)cc3)N3CCOCC3)oc2c1 (stereo unspecified) | inactive: 63%
5 | COc1cc(NC(=O)C2CCN(c3nnc(C)c4c(C)n(-c5ccccc5)nc34)CC2)cc(OC)c1 | inactive: 87%
6 | Cc1ccc(NC(=O)NC(C)c2c(-n3cccc3)sc(C)c2C)cc1F (stereo unspecified) | inactive: 64%
7 | Cc1ccc(-n2c(=O)[nH]c3cc(C(=O)NCCc4ccccc4)ccc3c2=O)cc1 | inactive: 83%
8 | CCN(CC)C(=O)c1ccccc1NC(=O)c1cccc(S(=O)(=O)N2CCC(C)CC2)c1 | inactive: 88%
9 | CCOc1ccc(CCNC(=O)c2nn(-c3ccc(OC)cc3)c(=O)c3c2c2ccccc2n3C)cc1OCC | inactive: 97%
10 | O=C(O)CCc1ccc(-c2ccc(Cl)cc2)n1-c1cccc(C(F)(F)F)c1 | active: 23%
11 | CCOC(=O)c1cnc(NCc2ccc(Cl)cc2)c2ccccc12 | inactive: 91%
12 | Cc1ccc2[nH]c3c(=O)n(CC(=O)N(C)Cc4ccccc4)ncc3c2c1 | active: -1%
13 | O=C(Cc1ccc(F)cc1)NCCc1csc(-c2ccc(C(F)(F)F)cc2)n1 | inactive: 92%
14 | Cn1c(CN2CCCCC2)nc2cc(NC(=O)c3ccc(Cl)cc3)ccc21 | inactive: 135%
15 | COc1cccc(CNC(=O)c2ccc(CS(=O)Cc3ccc(Cl)cc3)o2)c1 (stereo unspecified) | inactive: 69%
16 | N#Cc1cc2c(=O)n3ccccc3nc2n(-c2nnc(SCc3ccccc3)s2)c1=O | inactive: 96%
17 | Cc1ccc(C(=O)CSc2nnc3ccc4ccccc4n23)cc1 | inactive: 60%
18 | CCC(C)(C)NC(=O)c1ccc2c(c1)N(CC#N)C(=O)C(C)(C)O2 | inactive: 94%
19 | Cn1nnc2cc(C(=O)N3CCSCC3)ccc21 | inactive: 84%
20 | Cc1ccc(NC(CNS(=O)(=O)c2ccc(Cl)cc2)c2ccccc2)cc1 (stereo unspecified) | inactive: 74%
21 | Cc1ccc(CNC(=O)C2CCN(c3ncnc4c3nc3n4CCCCC3)CC2)cc1 | inactive: 77%
22 | CCC(=O)N1c2ccc(S(=O)(=O)N3CCN(c4ccccc4Cl)CC3)cc2CC1C (stereo unspecified) | inactive: 79%
23 | Cc1nn(C)c(C)c1NC(=O)CSc1nccc(-c2ccc(Cl)cc2)n1 | inactive: 91%

Row | Structure (SMILES) | survival
24 | Cc1cccc(N(C)c2nc3ccc(C)cc3n3nnnc23)c1 | inactive: 68%
25 | CCOC(=O)C1CCCN(S(=O)(=O)c2cc(-c3cc(C)no3)ccc2C)C1 (stereo unspecified) | inactive: 76%
26 | S=c1nc(C2CC2)[nH]c2ccccc12 | inactive: 72%
27 | O=C(CSc1nc2ccccc2s1)N=Nc1c(O)n(CN2CCCC2)c2ccccc12 | inactive: 75%
28 | O=C(NC1CCCCC1)/C(=C/c1ccc(Cl)cc1)NC(=O)c1ccccc1 | inactive: 76%
29 | CCN1CCOC(=O)C1CC(=O)Nc1cc(Cl)ccc1OC (stereo unspecified) | inactive: 50%
30 | CCOC(=O)c1c(NC(=O)/C=C/c2ccc(OCC)cc2)sc2c1CCC2 | inactive: 145%
31 | CCCCn1c(=O)c2oc3ccccc3c2n(CC(=O)Nc2ccccc2OC)c1=O | inactive: 97%
32 | Cc1ccc(CNC(=O)Cn2cc(C(=O)c3ccc(Cl)cc3)c(=O)c3ccc(C)nc32)cc1 | inactive: 84%
33 | Cc1cccc(C)c1Nc1c(-c2ccccc2O)nc2ncccn12 | inactive: 82%
34 | Cc1ccccc1CNC(=O)c1ccc2c(c1)N(Cc1ccccc1)CCS2 | inactive: 79%
35 | CC(=O)N(Cc1cc2cc(C)ccc2nc1Cl)C1CCCC1 | inactive: 64%
36 | O=C(CCCn1c(=O)c2cccn2c2cccnc21)Nc1ccccc1Br | inactive: 98%
37 | O=c1oc2ccc3ccccc3c2cc1-c1nnc(Nc2cccc(F)c2)s1 | inactive: 83%
38 | Cc1cnc(C(=O)Nc2ccc(C(=O)N(C)C3CCCCC3)cc2)cn1 | inactive: 111%
39 | O=C(OCC1CCCO1)c1ccc2c(c1)N(Cc1ccccc1F)C(=O)c1ccccc1S2(=O)=O (stereo unspecified) | inactive: 98%
40 | CCOc1ccccc1NC(=O)CSc1nccn1Cc1ccc(F)cc1 | inactive: 70%
41 | Cc1ccc(-n2c(=O)c3ccc(C(=O)NCc4ccccc4Cl)cc3n(CC(N)=O)c2=O)cc1 | inactive: 74%
42 | CCOc1nc(Nc2ccc(OC)cc2)nc(N2CCOCC2)n1 | active: 70%
43 | Cc1ccccc1C(=O)Nc1ccc(C(=O)OCc2cc(=O)n3c4c(sc3n2)CCCC4)cc1 | inactive: 118%
44 | Cc1cccc(CNC(=O)c2cnc3sc(N4CCOCC4)nn3c2=O)c1 | inactive: 105%
45 | O=C1/C(=C/c2ccccc2O)CC/C1=C\c1ccccc1O | active: 55%
46 | CCc1ccc(C2=C(C)C(N3CCC(C(=O)NCc4ccc(C)o4)CC3)=NS2(=O)=O)cc1 | inactive: 88%

Row | Structure (SMILES) | survival
47 | Cc1ccc(S(=O)(=O)N2CCCc3cc(NC(=O)c4c(F)cccc4F)ccc32)cc1 | inactive: 73%
48 | Cc1nn(CC(=O)NCc2ccccc2Br)c(=O)c2cc3occc3n12 | inactive: 132%
49 | O=C(CCn1c(=O)c2cccn2c2cccnc21)N1CCN(c2ccc(Cl)cc2)CC1 | inactive: 53%
50 | Cc1cccc(OCCCCn2c(C3CC(=O)N(c4ccc(C)cc4C)C3)nc3ccccc32)c1 (stereo unspecified) | inactive: 47%
51 | Cc1ccc(Cl)cc1-n1ncc2c(N3CCC(C(N)=O)CC3)ncnc21 | inactive: 88%
52 | CNc1oc(/C=C/c2cc(OC)c(OC)c(OC)c2)nc1C#N | inactive: 69%
53 | CS(=O)(=O)N1CCC(N2CCN(Cc3ccc(F)cc3)C(=O)C2=O)CC1 | inactive: 76%
54 | CCOc1ccccc1C(=O)NCC(c1ccc(N(C)C)cc1)N1CCCC1 (stereo unspecified) | inactive: 85%
55 | CC1(C)CC(C(CC(=O)O)Cc2ccccc2)CCO1 (stereo unspecified) | inactive: 88%
56 | CSc1ccc(CCNC(=O)c2ccc3c(c2)c(C)c(C)n3Cc2ccc(F)cc2)cc1 | inactive: 75%
57 | CNC(=S)N(Cc1ccco1)Cc1cc2ccc(C)cc2[nH]c1=O | inactive: 99%
58 | CCn1c(CN2CCN(C)CC2)nc2cc(NC(=O)c3cc(OC)c(OC)c(OC)c3)ccc21 | inactive: 96%
59 | O=C(NCc1ccccn1)c1nn(-c2ccccc2Cl)nc1CO | inactive: 91%
60 | Cc1ccccc1NC(=O)c1ccc(CNS(=O)(=O)c2ccc3c(c2)C(C)(C)C(=O)N3C)cc1 | inactive: 76%
61 | COc1ccccc1CNC(=O)C(Cc1ccccc1)NS(=O)(=O)c1ccc2c(c1)CCN2C(C)=O (stereo unspecified) | inactive: 61%
62 | Cc1cc(NC(=O)CSc2ncc(C(=O)Nc3ccccc3)c(=O)n2C)no1 | inactive: 67%
63 | CCN(CC)C(=O)C1=C(C)Nc2nc3ccccc3n2C1c1ccc(Cl)cc1 (stereo unspecified) | inactive: 74%
64 | CSc1ncc(C(=O)Nc2cccc(Cl)c2C)c(-c2ccccc2)n1 | inactive: 131%
65 | CCNC(=O)CC1C(=O)N(c2ccc(F)cc2)C(=O)N1Cc1ccc(C)cc1 (stereo unspecified) | inactive: 103%
66 | O=C(Nc1nnc(C2CCCC2)s1)C1CC1 | inactive: 111%
67 | Cc1ccc(Cl)cc1N(C)C(=O)c1cc2ccc3cccnc3c2[nH]1 | inactive: 83%
68 | CCCCOc1ccc(C(=O)NCCc2csc3nc(-c4ccccc4F)nn23)cc1 | inactive: 84%
69 | O=C(Nc1ccc2nsnc2c1)C1CC1 | inactive: 89%

Row | Structure (SMILES) | survival
70 | COC(=O)c1ccc(NC(=O)c2c(NCc3ccc(OC)c(OC)c3)sc3c2CCCC3)cc1 | inactive: 67%
71 | COC(=O)c1ccccc1NC(=O)CCCS(=O)(=O)c1nc(-c2ccccc2OC)cc(C(F)(F)F)n1 | inactive: 87%
72 | CCOc1ccccc1CNC(=O)CN1C(=O)C2CCCCN2c2ccc(C(=O)N(C)C)cc21 (stereo unspecified) | inactive: 120%
73 | Cc1cc2ncn(C(=O)N3CCCCC3)c2cc1C | inactive: 101%
74 | CC(=O)c1cccc(NC(=O)c2cc(-c3ccc4c(c3)OCCO4)on2)c1 | active: 45%
75 | CCOC(=O)CNC(=O)Cn1nc(N2CCN(c3ccccc3)CC2)ccc1=O | inactive: 71%
76 | N#Cc1c(N)nc(SCC(=O)c2ccc(Cl)cc2)c(C#N)c1-c1ccco1 | inactive: 76%
77 | COCCn1c(CNC(=O)c2cc(OC)c(OC)c(OC)c2)nc2cccnc21 | inactive: 75%
78 | CCN(CC)C(=O)C1CCCN(c2ncnc3c2nc2n3CCCCC2)C1 (stereo unspecified) | inactive: 75%
79 | COc1ccc(CCCc2nnc(SCC(=O)Nc3ccc(Cl)cc3)o2)cc1 | inactive: 92%
80 | CCOc1ccc(OCC)c(NC(=O)c2c(C)nn(-c3ccccc3)c2-n2cccc2)c1 | inactive: 56%
81 | Cc1nn(C)c2c1c(C(F)(F)F)cc(=O)n2CC(=O)NC(C)(C)C | inactive: 74%
82 | CCc1ccccc1NC(=O)c1ccc2[nH]c(C)c(C)c2c1 | inactive: 116%
83 | Cc1oc2ncnc(N3CCCCC3)c2c1C(=O)Nc1cccc(F)c1 | inactive: 126%
84 | COc1ccc(-c2cc(-c3ccc(F)cc3)nc3c2COc2ccccc2-3)cc1 | inactive: 82%
85 | CCc1ccc(CNC(=O)c2sc3ncnc(N(C)C4CCCCC4)c3c2C)cc1 | inactive: 107%
86 | Cc1ccc(C)c2[nH]c(=O)c(CN(CCCN3CCCC3=O)S(=O)(=O)c3ccc(F)cc3)cc12 | inactive: 68%
87 | CCOc1ccc(-c2nnc(SCC(=O)NCCc3ccccc3)nc2-c2ccc(OCC)c(OC)c2)cc1OC | inactive: 112%
88 | CCCN(C(=O)Cn1nc(Cc2ccncc2)c2ccccc2c1=O)c1ccccc1C | inactive: 87%
89 | COc1ccc(Br)cc1CNC(=O)c1ccc(-n2c(C)cc3c2CCC(C)C3)cc1 (stereo unspecified) | inactive: 116%
90 | Cc1cc(O)c(CN2CCN(c3ccc(F)cc3)CC2)c2oc(=O)cc(C)c12 | inactive: 46%
91 | Cc1cccc(C(=O)Nc2nnc(S(=O)(=O)N3c4ccccc4CC3C)s2)c1 (stereo unspecified) | active: 16%

Source: PubChem BioAssay AID463173 (ICCB-Longwood Screening Facility, Harvard Medical School, 2010)
